Results: US5807983A, “GNRH antagonist betides” (The Salk Institute for Biological Studies, priority 1996, dated 1998)
Not every detail of the peptide structures is certain; ends, links or a residue may be inferred.

How the values were obtained:
[1] = tested on: ovulation in mature female Sprague-Dawley rats; assay: standard in vivo rat anti-ovulation test; settings: injected in bacteriostatic water at about noon on the day of proestrus
Method: The betide is assayed in vivo to determine its effectiveness to prevent ovulation in female rats. Inthis test, a specified number of mature female Sprague-Dawley rats, e.g. five to ten, each having a body weight from 225 to 250 grams, are injected with a specified microgram dosage of the betide in bacteriostatic water at about noon on the day of proestrus. Proestrus is the […]. A separate female rat group is used as a control to which the peptide is not administered. Each of the control female rats ovulates on the evening of proestrus; the number of the rats treated which ovulate is recorded.

circulating LH = assay: suppression of circulating LH concentrations, duration of bioactivity; assay type: in vivo; settings: dose of 50 micrograms per rat, testing as in Example 1

| Structure (SMILES) | anti-ovulatory activity: rats ovulating out of rats treated ([1]; dosage 2.5 μg) | anti-ovulatory activity: rats ovulating out of rats treated ([1]; dosage 0.5 μg) | anti-ovulatory activity: rats ovulating out of rats treated ([1]; dosage 1 μg) | duration of bioactivity (LH suppression) (circulating LH) | anti-ovulatory activity: rats ovulating out of rats treated ([1]; dosage 5 μg) |
| --- | --- | --- | --- | --- | --- |
| CC(=O)Nc1ccc(C[C@H](NC(=O)[C@H](CO)NC(=O)[C@@H](Cc2cccnc2)NC(=O)[C@@H](Cc2ccc(Cl)cc2)NC(=O)[C@@H](Cc2ccc3ccccc3c2)NC(C)=O)C(=O)NC(C(=O)N[C@@H](CC(C)C)C(=O)N[C@@H](CCCCNC(C)C)C(=O)N2CCC[C@H]2C(=O)N[C@H](C)C(N)=O)N(C)C(=O)c2ccc(NC(C)=O)cc2)cc1 (single isomer, unassigned) [Betide No. 5A first isomer, Ac-β-D-2Nal-(4Cl)D-Phe-D-3Pal-Ser-Aph(acetyl)-γ-(methyl,4-acetamidophenyl)D/L-amidoGly-Leu-Lys(isopropyl)-Pro-D-Ala-NH2] | 6 out of 8 |  |  |  |  |
| CC(=O)Nc1ccc(C[C@H](NC(=O)[C@H](CO)NC(=O)[C@@H](Cc2cccnc2)NC(=O)[C@@H](Cc2ccc(Cl)cc2)NC(=O)[C@@H](Cc2ccc3ccccc3c2)NC(C)=O)C(=O)NC(C(=O)N[C@@H](CC(C)C)C(=O)N[C@@H](CCCCNC(C)C)C(=O)N2CCC[C@H]2C(=O)N[C@H](C)C(N)=O)N(C)C(=O)c2ccc(NC(C)=O)cc2)cc1 (single isomer, unassigned) [Betide No. 5A other isomer, Ac-β-D-2Nal-(4Cl)D-Phe-D-3Pal-Ser-Aph(acetyl)-γ-(methyl,4-acetamidophenyl)D/L-amidoGly-Leu-Lys(isopropyl)-Pro-D-Ala-NH2] | 2 out of 8 |  |  |  |  |
| CC(=O)Nc1ccc(C[C@H](NC(=O)[C@H](CO)NC(=O)[C@@H](Cc2cccnc2)NC(=O)[C@@H](Cc2ccc(Cl)cc2)NC(=O)[C@@H](Cc2ccc3ccccc3c2)NC(C)=O)C(=O)N[C@H](Cc2ccc(NC(C)=O)cc2)C(=O)N[C@@H](CC(C)C)C(=O)NC(C(=O)N2CCC[C@H]2C(=O)N[C@H](C)C(N)=O)N(C)C(=O)CCNC(C)C)cc1 (single isomer, unassigned) [Betide No. 7A first isomer, Ac-D-2Nal-(4Cl)D-Phe-D-3Pal-Ser-Aph(acetyl)-D-Aph(acetyl)-Leu-D/L-Agl(methyl,isopropylβ-alanyl)-Pro-D-Ala-NH2] | 0/8 | 5 out of 8 | 0/8 |  |  |
| CC(=O)Nc1ccc(C[C@H](NC(=O)[C@H](CO)NC(=O)[C@@H](Cc2cccnc2)NC(=O)[C@@H](Cc2ccc(Cl)cc2)NC(=O)[C@@H](Cc2ccc3ccccc3c2)NC(C)=O)C(=O)N[C@H](Cc2ccc(NC(C)=O)cc2)C(=O)N[C@@H](CC(C)C)C(=O)NC(C(=O)N2CCC[C@H]2C(=O)N[C@H](C)C(N)=O)N(C)C(=O)CCNC(C)C)cc1 (single isomer, unassigned) [Betide No. 7A second isomer, Ac-D-2Nal-(4Cl)D-Phe-D-3Pal-Ser-Aph(acetyl)-D-Aph(acetyl)-Leu-D/L-Agl(methyl,isopropylβ-alanyl)-Pro-D-Ala-NH2] | 7 out of 8 |  |  |  |  |
| CC(=O)Nc1ccc(C[C@H](NC(=O)[C@H](CO)NC(=O)[C@@H](Cc2cccnc2)NC(=O)[C@@H](Cc2ccc(Cl)cc2)NC(=O)[C@@H](Cc2ccc3ccccc3c2)NC(C)=O)C(=O)N[C@H](Cc2ccc(NC(C)=O)cc2)C(=O)N[C@@H](CC(C)C)C(=O)N[C@@H](CCCCNC(C)C)C(=O)N2CCC[C@H]2C(=O)NC(NC=O)C(N)=O)cc1 (single isomer, unassigned) [Betide No. 8 first isomer, Ac-D-2Nal-4C1-D-Phe-D-3Pal-Ser-Aph(acetyl)-D-Aph(acetyl)-Leu-Lys(isopropyl)-Pro-D/L-Agl(For)-NH2] |  | 9 out of 11 | 6 out of 17 | ≥ 72 h |  |
| CC(=O)Nc1ccc(C[C@H](NC(=O)[C@H](CO)NC(=O)[C@@H](Cc2cccnc2)NC(=O)[C@@H](Cc2ccc(Cl)cc2)NC(=O)[C@@H](Cc2ccc3ccccc3c2)NC(C)=O)C(=O)N[C@H](Cc2ccc(NC(C)=O)cc2)C(=O)N[C@@H](CC(C)C)C(=O)N[C@@H](CCCCNC(C)C)C(=O)N2CCC[C@H]2C(=O)NC(NC=O)C(N)=O)cc1 (single isomer, unassigned) [Betide No. 8 second isomer, Ac-D-2Nal-4C1-D-Phe-D-3Pal-Ser-Aph(acetyl)-D-Aph(acetyl)-Leu-Lys(isopropyl)-Pro-D/L-Agl(For)-NH2] | 0/8 |  | inactive |  |  |
| CC(=O)Nc1ccc(C[C@H](NC(=O)[C@H](CO)NC(=O)[C@@H](Cc2cccnc2)NC(=O)[C@@H](Cc2ccc(Cl)cc2)NC(=O)C(NC(C)=O)NC(=O)c2ccc3ccccc3c2)C(=O)N[C@H](Cc2ccc(NC(C)=O)cc2)C(=O)N[C@@H](CC(C)C)C(=O)N[C@@H](CCCCNC(C)C)C(=O)N2CCC[C@H]2C(=O)N[C@H](C)C(N)=O)cc1 (single isomer, unassigned) [Example 3 second isomer, Ac-γ-(2-naphthoyl)amidoGly-4Cl-D-Phe-D-3Pal-Ser-Aph(acetyl)-D-Aph(acetyl)-Leu-Lys(isopropyl)-Pro-D-Ala-NH2] | 5/5 |  |  |  | 0/8 |
| CC(=O)NC(C(=O)N[C@H](Cc1ccc(Cl)cc1)C(=O)N[C@H](Cc1cccnc1)C(=O)N[C@@H](CO)C(=O)N[C@@H](Cc1ccc(Nc2n[nH]c(N)n2)cc1)C(=O)N[C@H](Cc1ccc(Nc2n[nH]c(N)n2)cc1)C(=O)N[C@@H](CC(C)C)C(=O)N[C@@H](CCCCNC(C)C)C(=O)N1CCC[C@H]1C(=O)N[C@H](C)C(N)=O)N(C)C(=O)c1ccc2ccccc2c1 (single isomer, unassigned) [Example 3B first isomer, Ac-D/L-Agl(methyl,2-naphthoyl)-D-4Cpa-D-3Pal-Ser-Aph(atz)-D-Aph(atz)-Leu-Lys(isopropyl)-Pro-D-Ala-NH2] | 0/8 |  | 5 out of 8 |  |  |
| CC(=O)NC(C(=O)N[C@H](Cc1ccc(Cl)cc1)C(=O)N[C@H](Cc1cccnc1)C(=O)N[C@@H](CO)C(=O)N[C@@H](Cc1ccc(Nc2n[nH]c(N)n2)cc1)C(=O)N[C@H](Cc1ccc(Nc2n[nH]c(N)n2)cc1)C(=O)N[C@@H](CC(C)C)C(=O)N[C@@H](CCCCNC(C)C)C(=O)N1CCC[C@H]1C(=O)N[C@H](C)C(N)=O)N(C)C(=O)c1ccc2ccccc2c1 (single isomer, unassigned) [Example 3B second isomer, Ac-D/L-Agl(methyl,2-naphthoyl)-D-4Cpa-D-3Pal-Ser-Aph(atz)-D-Aph(atz)-Leu-Lys(isopropyl)-Pro-D-Ala-NH2] | 7 out of 8 |  |  |  |  |
